Results published in patent US7985561B2 (priority 2006, dated 2011).
Where two headings read alike, the source gives them in different places.

Assays:
breast cancer patients [1] = type: in vivo, human
breast cancer patients [2] = test system: breast cancer patients
[3] = 5-year breast cancer survival, Ala/Ala vs Val/Val & Val/Ala (ref.), recessive model
[4] = 5-year breast cancer survival, Ala/Ala vs Val/Val & Val/Ala (ref.), recessive model, multivariate Cox regression
[5] = 5-year breast cancer survival, Ala/Ala vs Val/Val (ref.), multivariate Cox regression
[6] = 5-year breast cancer survival, Ala/Ala vs Val/Val (ref.), patients receiving the drug-based chemotherapy
[7] = 5-year breast cancer survival, Val/Ala & Ala/Ala vs Val/Val (ref.), dominant model
[8] = 5-year breast cancer survival, Val/Ala & Ala/Ala vs Val/Val (ref.), dominant model, multivariate Cox regression
[9] = 5-year breast cancer survival, Val/Ala vs Val/Val (ref.), multivariate Cox regression
[10] = 5-year breast cancer survival, Val/Ala vs Val/Val (ref.), patients receiving the drug-based chemotherapy
[11] = 10-year breast cancer survival, Ala/Ala vs Val/Val & Val/Ala (ref.), recessive model, adjusted Cox regression
[12] = 10-year breast cancer survival, Ala/Ala vs Val/Val & Val/Ala (ref.), recessive model, patients receiving the drug-based chemotherapy
[13] = 10-year breast cancer survival, Ala/Ala vs Val/Val (ref.), Cox regression adjusted for age, study site, race, tumor size, nodes, grade, ER, p53
[14] = 10-year breast cancer survival, Ala/Ala vs Val/Val (ref.), patients receiving the drug-based chemotherapy
[15] = 10-year breast cancer survival, Val/Ala & Ala/Ala vs Val/Val (ref.), dominant model, adjusted Cox regression
[16] = 10-year breast cancer survival, Val/Ala & Ala/Ala vs Val/Val (ref.), dominant model, patients receiving the drug-based chemotherapy
[17] = 10-year breast cancer survival, Val/Ala vs Val/Val (ref.), Cox regression adjusted for age, study site, race, tumor size, nodes, grade, ER, p53
[18] = 10-year breast cancer survival, Val/Ala vs Val/Val (ref.), patients receiving the drug-based chemotherapy

Compound: COc1cccc2c1C(=O)c1c(O)c3c(c(O)c1C2=O)C[C@@](O)(C(=O)CO)C[C@@H]3O[C@H]1C[C@H](N)[C@H](O)[C@H](C)O1 [Doxorubicin]
- deaths among Ala/Ala carriers (breast cancer patients [1]; doxorubicin-treated, among 11 patients, homozygous Ala/Ala, very poor survival): 6
- deaths among Val/Val carriers (breast cancer patients [1]; doxorubicin-treated, among 21 patients, homozygous Val/Val, very good survival): 1
- deaths among heterozygous carriers (breast cancer patients [1]; doxorubicin-treated, among 38 patients, Val/Ala, intermediate survival): 8
- RR of breast cancer survival by MnSOD genotype, multivariate Cox analysis (breast cancer patients [1]; patients that received doxorubicin treatment (n=70), mostly with cyclophosphamide (AC therapy), genotype entered as Val/Val, Val/Ala, Ala/Ala, 95% CI: 1.97-16.1): 5.63
- HR (95% CI), univariate (breast cancer patients [2]; [3]): 2.56 (1.50-4.38)
- HR (95% CI), multivariate (breast cancer patients [2]; [4]): 2.42 (1.32-4.44)
- HR (95% CI), multivariate (breast cancer patients [2]; [5]): 3.07 (1.13-8.29)
- HR (95% CI), multivariate (breast cancer patients [2]; 5-year breast cancer survival, Ala/Ala vs Val/Val (ref.), multivariate Cox regression, listed as doxorubicin): 3.07
- HR (95% CI), univariate (breast cancer patients [2]; [6]): 2.78 (1.39-5.56)
- HR (95% CI), univariate (breast cancer patients [2]; [7]): 1.53 (0.84-2.77)
- HR (95% CI), multivariate (breast cancer patients [2]; [8]): 1.14 (0.60-2.16)
- HR (95% CI), multivariate (breast cancer patients [2]; [9]): 0.85 (0.42-1.72)
- HR (95% CI), univariate (breast cancer patients [2]; [10]): 1.16 (0.61-2.21)
- HR (95% CI), multivariate (breast cancer patients [2]; [11]): 2.44 (1.33-4.47)
- HR (95% CI), univariate (breast cancer patients [2]; [12]): 2.57 (1.53-4.35)
- HR (95% CI), multivariate (breast cancer patients [2]; [13]): 3.16 (1.18-8.51)
- HR (95% CI), multivariate (breast cancer patients [2]; 10-year breast cancer survival, Ala/Ala vs Val/Val (ref.), Cox regression adjusted for age, study site, race, tumor size, nodes, grade, ER, p53, listed as doxorubicin): 3.16
- HR (95% CI), univariate (breast cancer patients [2]; [14]): 2.76 (1.41-5.40)
- HR (95% CI), multivariate (breast cancer patients [2]; [15]): 1.09 (0.58-2.04)
- HR (95% CI), univariate (breast cancer patients [2]; [16]): 1.50 (0.84-2.68)
- HR (95% CI), multivariate (breast cancer patients [2]; [17]): 0.83 (0.41-1.64)
- HR (95% CI), univariate (breast cancer patients [2]; [18]): 1.13 (0.60-2.10)

Compound: O=c1[nH]cc(F)c(=O)[nH]1 [5-Fluorouracil, 5-fluorouracil]
- HR (95% CI), univariate (breast cancer patients [2]; [3]): 1.97 (1.05-3.73)
- HR (95% CI), multivariate (breast cancer patients [2]; [4]): 2.74 (1.32-5.68)
- HR (95% CI), multivariate (breast cancer patients [2]; [5]): 7.22 (1.77-29.4)
- HR (95% CI), multivariate (breast cancer patients [2]; 5-year breast cancer survival, Ala/Ala vs Val/Val (ref.), multivariate Cox regression, listed as 5-FU): 7.22
- HR (95% CI), univariate (breast cancer patients [2]; [6]): 5.18 (1.50-17.8)
- HR (95% CI), univariate (breast cancer patients [2]; [7]): 3.78 (1.16-12.2)
- HR (95% CI), multivariate (breast cancer patients [2]; [8]): 3.79 (1.11-13.0)
- HR (95% CI), multivariate (breast cancer patients [2]; [9]): 2.24 (0.61-8.19)
- HR (95% CI), univariate (breast cancer patients [2]; [10]): 3.10 (0.92-10.4)
- HR (95% CI), multivariate (breast cancer patients [2]; [11]): 2.75 (1.40-5.39)
- HR (95% CI), univariate (breast cancer patients [2]; [12]): 1.90 (1.05-3.42)
- HR (95% CI), multivariate (breast cancer patients [2]; [13]): 6.85 (1.86-25.3)
- HR (95% CI), multivariate (breast cancer patients [2]; 10-year breast cancer survival, Ala/Ala vs Val/Val (ref.), Cox regression adjusted for age, study site, race, tumor size, nodes, grade, ER, p53, listed as 5-FU): 6.85
- HR (95% CI), univariate (breast cancer patients [2]; [14]): 4.63 (1.56-13.72)
- HR (95% CI), multivariate (breast cancer patients [2]; [15]): 3.84 (1.30-11.4)
- HR (95% CI), univariate (breast cancer patients [2]; [16]): 3.49 (1.25-9.74)
- HR (95% CI), multivariate (breast cancer patients [2]; [17]): 2.39 (0.76-7.55)
- HR (95% CI), univariate (breast cancer patients [2]; [18]): 2.95 (1.03-8.50)
